Test results reported in the supplement of paper PMC8728848.
Some of the results follow.

Experiments:
Test in all cases: glycan array binding signal (z-score within array); higher = stronger binding
Settings in all cases: glycan notation: IUPAC condensed, linker removed
Gal(a1-4)Gal(b1-4)Gal = biological target: Gal(a1-4)Gal(b1-4)Gal
Method in brief: (§1)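 Columns mapping to the same glycan were averaged after glycan names were converted to IUPAC-condensed notation. The data come from 3228 arrays in the Consortium for Functional Glycomics database, limited to those with an available protein sequence. Binding is reported as a within-array Z-score averaged across arrays of one protein sequence and across linkers.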

Gal(a1-4)Gal(b1-4)GalNAc = biological target: Gal(a1-4)Gal(b1-4)GalNAc
Method in brief: as §1

Gal(a1-4)Gal(b1-4)Glc = biological target: Gal(a1-4)Gal(b1-4)Glc
Method in brief: as §1

Gal(a1-4)Gal(b1-4)GlcNAc = biological target: Gal(a1-4)Gal(b1-4)GlcNAc
Method in brief: as §1

[1] = biological target: Gal(a1-4)Gal(b1-4)GlcNAc(b1-2)Man(a1-3)[Gal(a1-4)Gal(b1-4)GlcNAc(b1-2)Man(a1-6)]Man(b1-4)GlcNAc(b1-4)GlcNAc
Method in brief: as §1

[2] = biological target: Gal(a1-4)Gal(b1-4)GlcNAc(b1-3)Gal(b1-4)Glc
Method in brief: as §1

Gal(a1-4)GlcNAc = biological target: Gal(a1-4)GlcNAc
Method in brief: as §1

Gal(a1-6)Glc = biological target: Gal(a1-6)Glc
Method in brief: as §1

Gal(b1-2)Gal = biological target: Gal(b1-2)Gal
Method in brief: as §1

Gal(b1-3)Gal = biological target: Gal(b1-3)Gal
Method in brief: as §1

Gal(b1-3)Gal(b1-4)GlcNAc = biological target: Gal(b1-3)Gal(b1-4)GlcNAc
Method in brief: as §1

Gal(b1-3)GalNAc = biological target: Gal(b1-3)GalNAc
Method in brief: as §1

[3] = biological target: Gal(b1-3)GalNAc(a1-3)[Fuc(a1-2)]Gal(b1-4)Glc
Method in brief: as §1

[4] = biological target: Gal(b1-3)GalNAc(a1-3)[Fuc(a1-2)]Gal(b1-4)GlcNAc
Method in brief: as §1

Gal(b1-3)GalNAc(b1-3)Gal = biological target: Gal(b1-3)GalNAc(b1-3)Gal
Method in brief: as §1

[5] = biological target: Gal(b1-3)GalNAc(b1-3)Gal(a1-4)Gal(b1-4)Glc
Method in brief: as §1

[6] = biological target: Gal(b1-3)GalNAc(b1-3)Gal(b1-4)Glc
Method in brief: as §1

[7] = biological target: Gal(b1-3)GalNAc(b1-3)Gal(b1-4)GlcNAc
Method in brief: as §1

[8] = biological target: Gal(b1-3)GalNAc(b1-4)Gal(b1-4)Glc
Method in brief: as §1

[9] = biological target: Gal(b1-3)GalNAc(b1-4)[Neu5Ac(a2-3)]Gal(b1-4)Glc
Method in brief: as §1

Gal(b1-3)GlcNAc = biological target: Gal(b1-3)GlcNAc
Method in brief: as §1

[10] = biological target: Gal(b1-3)GlcNAc(a1-3)Gal(b1-4)GlcNAc
Method in brief: as §1

[11] = biological target: Gal(b1-3)GlcNAc(a1-6)Gal(b1-4)GlcNAc
Method in brief: as §1

Gal(b1-3)GlcNAc(b1-2)Man = biological target: Gal(b1-3)GlcNAc(b1-2)Man
Method in brief: as §1

[12] = biological target: Gal(b1-3)GlcNAc(b1-2)Man(a1-3)[Gal(b1-3)GlcNAc(b1-2)Man(a1-6)]Man(b1-4)GlcNAc(b1-4)GlcNAc
Method in brief: as §1

[13] = biological target: Gal(b1-3)GlcNAc(b1-2)Man(a1-3)[Gal(b1-3)GlcNAc(b1-2)Man(a1-6)]Man(b1-4)GlcNAc(b1-4)[Fuc(a1-6)]GlcNAc
Method in brief: as §1

[14] = biological target: Gal(b1-3)GlcNAc(b1-2)Man(a1-3)[GlcNAc(b1-4)][Gal(b1-3)GlcNAc(b1-2)Man(a1-6)]Man(b1-4)GlcNAc(b1-4)GlcNAc
Method in brief: as §1

[15] = biological target: Gal(b1-3)GlcNAc(b1-2)[Gal(b1-3)GlcNAc(b1-6)]Man(a1-6)[Gal(b1-3)GlcNAc(b1-2)Man(a1-3)]Man(b1-4)GlcNAc(b1-4)GlcNAc
Method in brief: as §1

[16] = biological target: Gal(b1-3)GlcNAc(b1-3)Gal(b1-3)GlcNAc
Method in brief: as §1

[17] = biological target: Gal(b1-3)GlcNAc(b1-3)Gal(b1-4)Glc
Method in brief: as §1

[18] = biological target: Gal(b1-3)GlcNAc(b1-3)Gal(b1-4)GlcNAc
Method in brief: as §1

[19] = biological target: Gal(b1-3)GlcNAc(b1-3)Gal(b1-4)GlcNAc(b1-2)Man(a1-3)[Gal(b1-3)GlcNAc(b1-3)Gal(b1-4)GlcNAc(b1-2)Man(a1-6)]Man(b1-4)GlcNAc(b1-4)GlcNAc
Method in brief: as §1

[20] = biological target: Gal(b1-3)GlcNAc(b1-3)Gal(b1-4)GlcNAc(b1-2)[Gal(b1-3)GlcNAc(b1-3)Gal(b1-4)GlcNAc(b1-6)]Man(a1-6)[Gal(b1-3)GlcNAc(b1-3)Gal(b1-4)GlcNAc(b1-2)Man(a1-3)]Man(b1-4)GlcNAc(b1-4)[Fuc(a1-6)]GlcNAc
Method in brief: as §1

[21] = biological target: Gal(b1-3)GlcNAc(b1-3)Gal(b1-4)GlcNAc(b1-3)Gal(b1-4)GlcNAc(b1-2)[Gal(b1-3)GlcNAc(b1-3)Gal(b1-4)GlcNAc(b1-3)Gal(b1-4)GlcNAc(b1-6)]Man(a1-6)[Gal(b1-3)GlcNAc(b1-3)Gal(b1-4)GlcNAc(b1-3)Gal(b1-4)GlcNAc(b1-2)Man(a1-3)]Man(b1-4)GlcNAc(b1-4)[Fuc(a1-6)]GlcNAc
Method in brief: as §1

[22] = biological target: Gal(b1-3)GlcNAc(b1-3)Gal(b1-4)GlcNAc(b1-6)[Gal(b1-3)GlcNAc(b1-3)]Gal(b1-4)Glc
Method in brief: as §1

[23] = biological target: Gal(b1-3)GlcNAc(b1-3)Gal(b1-4)[Fuc(a1-3)]GlcNAc
Method in brief: as §1

[24] = biological target: Gal(b1-3)GlcNAc(b1-3)Gal(b1-4)[Fuc(a1-3)]GlcNAc(b1-6)[Gal(b1-3)GlcNAc(b1-3)]Gal(b1-4)Glc
Method in brief: as §1

[25] = biological target: Gal(b1-3)GlcNAc(b1-3)GalNAc
Method in brief: as §1

B1: LTL (Lotus tetragonolobus), P19664 (protein)
chain: VSFNYTEFKDDGSLILQGDAKIWTDGRLAMPTDPLVNNPKTTRSAGRALYATPVPIWDSATGNVASFVTSFNFLFVIRELKYTPTDGLVFFLAPVGTEIPSGSTGGFLGIFDGSNGFNQFVAVEFDSYHNIWDPKSLRSSHVGIDVNSIMSLKAVNWNRVSGSLEKATIIYDSQTNILSVVMTSQNGQITTIYGTIDLKTVLPEKVSVGFSATTGNPEREKHDIYSWSFTSTLKEPEEQA
- glycan array binding signal (z-score) (Gal(a1-4)Gal(b1-4)Gal): -0.525
- glycan array binding signal (z-score) (Gal(a1-4)Gal(b1-4)GalNAc): -0.433
- glycan array binding signal (z-score) (Gal(a1-4)Gal(b1-4)Glc): -0.09
- glycan array binding signal (z-score) (Gal(a1-4)Gal(b1-4)GlcNAc): -0.162
- glycan array binding signal (z-score) [1]: 0.224
- glycan array binding signal (z-score) [2]: -0.102
- glycan array binding signal (z-score) (Gal(a1-4)GlcNAc): -0.262
- glycan array binding signal (z-score) (Gal(a1-6)Glc): -0.261
- glycan array binding signal (z-score) (Gal(b1-2)Gal): -0.208
- glycan array binding signal (z-score) (Gal(b1-3)Gal): -0.325
- glycan array binding signal (z-score) (Gal(b1-3)Gal(b1-4)GlcNAc): -0.185
- glycan array binding signal (z-score) (Gal(b1-3)GalNAc): -0.115
- glycan array binding signal (z-score) [3]: -0.041
- glycan array binding signal (z-score) [4]: -0.261
- glycan array binding signal (z-score) (Gal(b1-3)GalNAc(b1-3)Gal): -0.295
- glycan array binding signal (z-score) [5]: 0.007
- glycan array binding signal (z-score) [6]: -0.372
- glycan array binding signal (z-score) [7]: 0.163
- glycan array binding signal (z-score) [8]: 0.163
- glycan array binding signal (z-score) [9]: -0.124
- glycan array binding signal (z-score) (Gal(b1-3)GlcNAc): -0.211
- glycan array binding signal (z-score) [10]: -0.34
- glycan array binding signal (z-score) [11]: -0.022
- glycan array binding signal (z-score) (Gal(b1-3)GlcNAc(b1-2)Man): 0.121
- glycan array binding signal (z-score) [12]: 0.015
- glycan array binding signal (z-score) [13]: 0.108
- glycan array binding signal (z-score) [14]: -0.218
- glycan array binding signal (z-score) [15]: 0.022
- glycan array binding signal (z-score) [16]: 0.056
- glycan array binding signal (z-score) [17]: -0.217
- glycan array binding signal (z-score) [18]: -0.32
- glycan array binding signal (z-score) [19]: -0.31
- glycan array binding signal (z-score) [20]: 0.015
- glycan array binding signal (z-score) [21]: 0.251
- glycan array binding signal (z-score) [22]: -0.126
- glycan array binding signal (z-score) [23]: -0.347
- glycan array binding signal (z-score) [24]: -0.202
- glycan array binding signal (z-score) [25]: -0.141
